Results taken from the supplement of paper PMC3334620.
Over roughly 33,000 sequences, “E-score (-0.5 to 0.5)” has its median near -0.032; the highest 2% begin near 0.36. The list shows a part of the results.

These sequences were tested against T1, Sko1 (UniProt Q02100) (assay: PBM E-score (8-mer binding enrichment) (E-score (-0.5 to 0.5)); higher = stronger / more preferred TF binding; most listed sequences are background and not binding sites). Conditions: protein concentration: 200 nM; construct: GST-full length.
T1 sequence: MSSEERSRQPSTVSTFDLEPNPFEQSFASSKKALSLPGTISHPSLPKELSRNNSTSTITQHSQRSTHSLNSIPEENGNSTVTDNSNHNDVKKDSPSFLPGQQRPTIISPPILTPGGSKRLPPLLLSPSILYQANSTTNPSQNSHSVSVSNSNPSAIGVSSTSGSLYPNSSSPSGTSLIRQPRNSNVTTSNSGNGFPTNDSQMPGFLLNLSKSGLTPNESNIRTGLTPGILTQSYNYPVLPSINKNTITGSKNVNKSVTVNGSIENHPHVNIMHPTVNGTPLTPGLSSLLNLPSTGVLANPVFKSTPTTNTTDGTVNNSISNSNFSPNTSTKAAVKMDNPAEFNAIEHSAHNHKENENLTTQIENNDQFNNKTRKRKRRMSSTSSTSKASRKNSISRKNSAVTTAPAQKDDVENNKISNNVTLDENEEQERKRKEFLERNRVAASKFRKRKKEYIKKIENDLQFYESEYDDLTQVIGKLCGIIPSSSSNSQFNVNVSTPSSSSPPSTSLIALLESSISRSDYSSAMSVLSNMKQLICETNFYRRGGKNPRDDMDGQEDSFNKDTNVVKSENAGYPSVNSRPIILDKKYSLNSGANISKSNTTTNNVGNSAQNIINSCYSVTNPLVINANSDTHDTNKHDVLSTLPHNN
Method in brief: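 Full-length yeast transcription factors or their DNA-binding domains, GST-tagged and expressed with PURExpress, were applied at about 100-200 nM to universal all-10-mer Agilent arrays. These arrays had been made double-stranded by primer extension on fresh or once-stripped slides. Detection used fluorescent anti-GST, normalisation used masliner, and E-scores for ungapped eight-base words pooled with reverse complements came from the Universal PBM Analysis Suite.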

Sequence	PBM E-score
CCGCGCAA	-0.0639
ACACTAGT	-0.128
AATGCCCC	-0.274
AACCTGTG	-0.189
AATTGGGA	0.00396
TAACGCTA	0.118
ATTTACTG	0.14
ATGGCTTG	-0.0941
AACAATGT	0.0572
CACTCTGG	-0.14
AGCCAATA	-0.0276
GAGAAGGC	-0.252
AAATAGTC	-0.101
CCATGGGG	-0.18
CACTCCCC	-0.223
GGAATCTA	0.103
CGAGGTGA	0.101
GACCGCCA	-0.172
AACTTGGG	-0.046
CGTGAGTA	0.14
AAGCTCGC	-0.0406
CACCACCC	-0.226
CAACCGCA	-0.251
ATGATCTC	0.145
CGTACTTA	0.28

Sequence	PBM E-score
AGCGCTGG	-0.211
AACTTCCA	-0.181
AATCCATT	0.183
AGGCCGAT	-0.0587
GATGCAGC	-0.0157
ATACATCC	0.0616
CAATTTCC	-0.134
CAACTAGG	0.0291
CTCCCTGA	-0.239
AAGCTAAC	0.0665
ATATTGAG	0.0657
CCGTCTTC	-0.306
AATTGCCT	0.0707
ACGGAGAA	0.055
AGACCCAT	-0.0753
CTACCTGA	0.0807
CACCAAAG	-0.0931
ATGAACCC	-0.0618
CACTTTGC	0.0489
CGGGAGCA	-0.238
GGTGCAGA	-0.313
GCAGCAAC	-0.0872
TATGTCCA	-0.0359
GAGGGGGC	-0.4
ATACGCCC	-0.0909

Sequence	PBM E-score
CATTACTA	0.166
AGGTTCTA	-0.0376
ATCCACGA	0.0828
CAAGCAGC	-0.218
ATGTTCAG	-0.125
ACAAGAGT	-0.0688
ATAAGAAG	0.0366
CACTGTAA	0.0809
CTGACACA	-0.079
AGCAACAG	-0.0611
CGCGTCTA	0.149
GCTCCGGA	-0.162
ACGGTCTA	-0.00461
TGCTTACA	-0.0407
ACGTATTG	0.464
GCACGGAC	-0.0227
AGACCCCA	-0.188
ACCGGAGG	-0.363
ACGGATCG	-0.137
ATGAGACG	0.0398
TGAGCCCA	-0.126
ACAGAGGA	0.00055
AGACCCGC	-0.0587
AGGATCGG	-0.224
GATCAGCA	-0.0416

Sequence	PBM E-score
TAAATCAA	0.178
CAGTTCGC	0.0184
GAAATCAA	0.0594
AATAAAGC	0.0835
CATATTGG	0.0555
CGATAGAA	0.027
CTTGGCGC	-0.204
CTCCGAGA	-0.215
TACCTCTA	0.0817
CAGGGAGA	-0.165
ACGACGGA	0.0966
AAGTTGGG	-0.0302
AACTCTGC	-0.209
GGAAACTA	-0.111
ATTTCGCG	0.125
ATTTCAAC	0.0828
CGAGGCAG	-0.236
TCATGCGA	0.0294
ATTCGTTC	0.158
GAAAACTC	-0.0676
ATCTGAGC	0.0943
CTGAGATC	-0.176
AGAAGGAC	-0.185
CAGTCTTA	-0.0285
GGCCCGCC	-0.167

Sequence	PBM E-score
GTTCATTA	0.206
GTTTAGAA	0.0523
GAGACCCA	-0.195
ACCAGGTG	-0.13
AACTAAGC	0.123
GAAAATAA	0.191
CATTGCTC	-0.14
CCACAGGG	-0.37
CTGGCGAA	-0.192
AAGTCGAG	-0.118
AGAAGGTA	-0.0444
AGTTGAGC	-0.138
CGTGGTCC	0.0939
CCTATGAC	0.308
ATCAGTGA	0.048
GGAGTTAA	-0.139
AAAATGCT	0.0588
CGATGTCC	-0.149
CGTCCTAC	-0.165
TCCTTACA	-0.0475
AGACCAGG	-0.157
ATAGTAAT	0.254
AGTTACAA	0.0823
ATCTGGAA	0.0487
CCGTACAC	-0.0557

Sequence	PBM E-score
CAAGGGGG	-0.388
AAGTGTGA	0.12
GCCACGCA	0.0845
GACCACGA	-0.0985
ACGAAGCC	-0.11
AATGCTGC	0.0182
CTGTACCA	-0.117
CACGCGTA	0.311
ACACTAAG	0.0281
TCTATGCA	0.0418
GGAAAAAC	0.0925
GTGCTAGA	-0.00191
GCAGTGAC	0.125
GGCATTCA	-0.193
AACTAGAT	0.0857
GACGGCGC	-0.106
AGCGCAAA	0.034
GAACATCC	-0.0417
CCCATACC	-0.135
ACGCTCCT	0.0118
CTGTCTCC	-0.192
TACAGGTA	-0.0036
AAATCACT	0.0538
AGCGCATC	0.0133
TGCTGAAA	0.043

Sequence	PBM E-score
ATGCCATG	0.118
CATCGCGG	0.061
AGGAATAT	0.0863
GGCGCCCC	-0.262
CGAGACGA	-0.179
ATTAGGCA	0.172
CCTATCAC	-0.186
GCTTGCAC	-0.145
AAACCGGC	-0.199
GGGAGAAA	-0.134
GTGTATTA	0.272
CAGGTTGC	0.0442
GGCCACCC	-0.263
CCGGCTAG	-0.322
AGTGCACT	-0.139
AGGCTGCA	-0.00537
ACTGAACT	-0.0554
GACCTATA	0.221
GGCCGACA	-0.183
GGACAGCC	-0.339
CGCAGCCC	-0.167
AACCCTCA	-0.0917
